Measured values: the supplement of paper PMC11741623
The other results are listed elsewhere or left out. Interaction screen of human proteins with wild-type SARS-CoV-2 proteins by split-DHFR complementation in yeast, 1 µg/mL methotrexate. Value = fitness of the pair (three or more lineages) minus that of the viral protein without a human partner, on a scale set by negative (0) and fused positive (1) controls, mean of up to three cultures; higher = more likely to interact. Active = false discovery rate below 0.05 (one-sided t-test) in at least one culture. Nearly all pairs are not hits, and differences among them are mostly noise (correlation between cultures about 0.3); most hits were seen in one culture only. Human sequences are the Swiss-Prot entries looked up by gene name; the clone may be another isoform. NSP2 values were corrected by the authors for a growth advantage. Listed are human proteins with a hit and a random twelfth of the others.

Key:
Assay in all cases: yeast fitness gain over the viral ORF with no human partner (scaled fitness); higher = more likely to interact
[1] = target: SARS-CoV-2 NSP10
Method: (§1)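 Split mouse DHFR complementation in pooled diploid yeast: human ORFeome clones carry one fragment and viral ORFs the other; barcoded lineages compete in 1 µg/mL methotrexate and fitness is read by barcode sequencing in up to three cultures.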

[2] = target: SARS-CoV-2 NSP12
Method: as §1

[3] = target: SARS-CoV-2 NSP13
Method: as §1

[4] = target: SARS-CoV-2 NSP2
Method: as §1

[5] = target: SARS-CoV-2 NSP5
Method: as §1

[6] = target: SARS-CoV-2 ORF10
Method: as §1

[7] = target: SARS-CoV-2 ORF3B
Method: as §1

[8] = target: SARS-CoV-2 ORF6
Method: as §1

[9] = target: SARS-CoV-2 ORF7A
Method: as §1

[10] = target: SARS-CoV-2 ORF7B
Method: as §1

[11] = target: SARS-CoV-2 ORF8
Method: as §1

[12] = target: SARS-CoV-2 ORF9B
Method: as §1

[13] = target: SARS-CoV-2 NSP7
Method: as §1

[14] = target: SARS-CoV-2 NSP8
Method: as §1

[15] = target: SARS-CoV-2 ORF9Bwu (the 73-codon ORF)
Method: as §1

[16] = target: SARS-CoV-2 ORF3A
Method: as §1

Measured: yeast fitness gain

B1: C10orf111, Q8N326 (protein)
chain: MESLQTPQHRENQDKREKEYGVKHMPMGNNAGNLEPEKRKAVRVALSSATAAQNIPSSVHCGCSKQWRLRLPSESLQSRGQVMKRPNNILKLRNLDLLIYPWPELRRRQVASDLMSLLLLPAFSGLTWAPFLFLFTYLPPFLNLLTVGFVSYFLV
inactive: [1] 0.0503 | [2] -0.199 | [3] 0.0733 | [4] -0.0426 | [5] -0.0659 | [6] -0.284 | [7] 0.0147 | [8] -0.0317 | [9] -0.0691 | [10] -0.116 | [11] 0.00685 | [12] 0.145

B2: KPNA4, O00629 (protein)
chain: MADNEKLDNQRLKNFKNKGRDLETMRRQRNEVVVELRKNKRDEHLLKRRNVPHEDICEDSDIDGDYRVQNTSLEAIVQNASSDNQGIQLSAVQAARKLLSSDRNPPIDDLIKSGILPILVHCLERDDNPSLQFEAAWALTNIASGTSEQTQAVVQSNAVPLFLRLLHSPHQNVCEQAVWALGNIIGDGPQCRDYVISLGVVKPLLSFISPSIPITFLRNVTWVMVNLCRHKDPPPPMETIQEILPALCVLIHHTDVNILVDTVWALSYLTDAGNEQIQMVIDSGIVPHLVPLLSHQEVKVQTAALRAVGNIVTGTDEQTQVVLNCDALSHFPALLTHPKEKINKEAVWFLSNITAGNQQQVQAVIDANLVPMIIHLLDKGDFGTQKEAAWAISNLTISGRKDQVAYLIQQNVIPPFCNLLTVKDAQVVQVVLDGLSNILKMAEDEAETIGNLIEECGGLEKIEQLQNHENEDIYKLAYEIIDQFFSSDDIDEDPSLVPEAIQGGTFGFNSSANVPTEGFQF
inactive: [1] 0.0202 | [2] -0.0349 | [3] -0.0137 | [4] -0.197 | [13] -0.0453 | [14] 0.0714 | [6] 0.00312 | [7] 0.0916 | [8] -0.00557 | [9] 0.197 | [10] 0.235 | [11] -0.0289 | [15] -0.0295

B3: PSG6, Q00889 (protein)
chain: MGPLSAPPCTQHITWKGLLLTASLLNFWNLPTTAQVIIEAKPPKVSEGKDVLLLVHNLPQNLTGYIWYKGQMTDLYHYITSYVVHGQIIYGPAYSGRETVYSNASLLIQNVTQEDAGSYTLHIIKRGDGTGGVTGYFTVTLYSETPKPSISSSNLNPREVMEAVRLICDPETPDASYLWLLNGQNLPMTHRLQLSKTNRTLYLFGVTKYIAGPYECEIRNPVSASRSDPVTLNLLPKLPMPYITINNLNPREKKDVLAFTCEPKSRNYTYIWWLNGQSLPVSPRVKRPIENRILILPSVTRNETGPYQCEIRDRYGGIRSNPVTLNVLYGPDLPRIYPSFTYYRSGENLDLSCFADSNPPAEYSWTINGKFQLSGQKLFIPQITTNHSGLYACSVRNSATGKEISKSMIVKVSETASPQVTYAGPNTWFQEILLL
inactive: [1] -0.152 | [3] -0.219 | [5] -0.0989 | [8] -0.0907 | [10] 0.32 | [11] -0.678 | [12] -0.151

B4: CELA2A, P08217 (protein)
chain: MIRTLLLSTLVAGALSCGDPTYPPYVTRVVGGEEARPNSWPWQVSLQYSSNGKWYHTCGGSLIANSWVLTAAHCISSSRTYRVGLGRHNLYVAESGSLAVSVSKIVVHKDWNSNQISKGNDIALLKLANPVSLTDKIQLACLPPAGTILPNNYPCYVTGWGRLQTNGAVPDVLQQGRLLVVDYATCSSSAWWGSSVKTSMICAGGDGVISSCNGDSGGPLNCQASDGRWQVHGIVSFGSRLGCNYYHKPSVFTRVSNYIDWINSVIANN
inactive: [1] -0.176 | [2] -0.182 | [4] -0.0737 | [5] 0.068 | [11] -0.233 | [12] -0.0324

B5: ODF2, Q5BJF6 (protein)
chain: MSASSSGGSPRFPSCGKNGVTSLTQKKVLRAPCGAPSVTVTKSHKRGMKGDTVNVRRSVRVKTKVPWMPPGKSSARPVGCKWENPPHCLEITPPSSEKLVSVMRLSDLSTEDDDSGHCKMNRYDKKIDSLMNAVGCLKSEVKMQKGERQMAKRFLEERKEELEEVAHELAETEHENTVLRHNIERMKEEKDFTILQKKHLQQEKECLMSKLVEAEMDGAAAAKQVMALKDTIGKLKTEKQMTCTDINTLTRQKELLLQKLSTFEETNRTLRDLLREQHCKEDSERLMEQQGALLKRLAEADSEKARLLLLLQDKDKEVEELLQEIQCEKAQAKTASELSKSMESMRGHLQAQLRSKEAENSRLCMQIKNLERSGNQHKAEVEAIMEQLKELKQKGDRDKESLKKAIRAQKERAEKSEEYAEQLHVQLADKDLYVAEALSTLESWRSRYNQVVKEKGDLELEIIVLNDRVTDLVNQQQTLEEKMREDRDSLVERLHRQTAEYSAFKLENERLKASFAPMEDKLNQAHLEVQQLKASVKNYEGMIDNYKSQVMKTRLEADEVAAQLERCDKENKILKDEMNKEIEAARRQFQSQLADLQQLPDILKITEAKLAECQDQLQGYERKNIDLTAIISDLRSRIEHQGDKLEMAREKHQASQKENKQLSLKVDELERKLEATSAQNIEFLQVIAKREEAIHQSQLRLEEKTRECGTLARQLESAIEDARRQVEQTKEHALSKERAAQNKILDLETQLSRTKTELSQLRRSRDDADRRYQSRLQDLKDRLEQSESTNRSMQNYVQFLKSSYANVFGDGPYSTFLTSSPIRSRSPPA
inactive: [1] -0.213 | [2] -0.0268 | [3] -0.234 | [6] -0.0319 | [16] -0.0629 | [8] 0.00481 | [11] -0.0301 | [12] 0.00503
